Reference: the supplement of paper PMC11417369
± gives the standard deviation of the averaged measurements. The list shows a part of the results.

tested on: PfAP2-I AP2 domain 3 (GST-tagged); assay: gcPBM binding intensity (ln(normalized median fluorescence intensity)); higher = stronger DNA binding
How it was run: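 GST-fused DNA-binding domains of P. falciparum, expressed in E. coli, were applied at about 25 μg on average for 1 h to an Agilent 4 × 180k array of primer-extended double-stranded 36-bp intergenic genomic probes and negative controls. Binding intensity is the highest Masliner-normalised natural-log median intensity across replicate spots of either probe orientation, measured with Alexa488 anti-GST antibody and a 488 nm scan.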

| Sequence | gcPBM binding intensity (ln) |
| --- | --- |
| ATTATCTATCGTTTTTGTACTTACACCTTAATACAA [XGTACX_site7337] | 8.48 ± 0.61 |
| CTTTTTTTTTTTTTTGCGCACTGTTTAAAGGGAAAT [GTGCAC_site9815] | 9.795 ± 0.049 |
| ATATATATATAATAAAGTACAAATTCTAAATGATAT [XGTACX_site570] | 8.73 ± 0.46 |
| TATCTTATGTCTGAAAGTACAAATTTTTTTCTACTT [XGTACX_site2208] | 7.52 ± 0.49 |
| AAGATCGCATGAAATGAACACACATAAAAAAAATAT [CACACA_site9353] | 7.92 ± 0.87 |
| CGTTGGTATTAAAAGGTGCAATGAAATAATATATTA | 10.8 ± 0.63 |
| TAAAATTTATAAACTACACACATATATATAGTAATA [CACACA_site3728] | 7.47 ± 0.48 |
| TAAAAAATTATATTCACACACATACCCATATATATA [CACACA_site4458] | 8.21 ± 0.69 |
| AATGTAACAACTTTTTGTACTTAAGAAATAATAAAT [XGTACX_site3310] | 7.64 ± 0.61 |
| TAATTTAGATATATAAAGAATTAAAGTTAACATTCT [CACACA_negctrl_site726] | 7.25 ± 0.64 |
| TTAAGAAAAAAAAAAAGTACACACATATAATATATA [XGTACX_site6268] | 7.79 ± 0.45 |
| TTTTTCAGATCCTATATAGTATCATATAAATTCCAT [CACACA_negctrl_site56] | 7.59 ± 0.58 |
| ATACAACTAATAAGTAGTACAATATACATATATTAT [XGTACX_site7086] | 7.91 ± 0.11 |
| ATATATATATATATATATATATATATATATTATATA [XGTACX_negctrl_site48] | 8.94 ± 0.59 |
| ATATGACTGTTCATTTGTACGTATAATTATATACGT [XGTACX_site3372] | 8.02 ± 0.58 |
| AAAAAAAATGAAAGGTGTACACATACAAACATAGAA [XGTACX_site3517] | 8.78 ± 0.44 |
| TTTTTTTTTTTTTTTTATTTATATATATATATATAT [CACACA_negctrl_site582] | 9.34 ± 0.25 |
| AAATGAGATATAAAATGTACATATTGTAAGTAAACA [XGTACX_site1237] | 7.82 ± 0.55 |
| TTAATTATATCAGGACGTACTAATATAAATATATAT [XGTACX_site8909] | 7.83 ± 0.18 |
| GGGATATATTATTATACACACATATATAAAAGCTTT [CACACA_site2445] | 7.87 ± 0.35 |
| GTGCAAAATATTTTTACACACAAATTTTTACAACAG [CACACA_site3357] | 9.99 ± 0.63 |
| AAAAATAAATAAGACACACACAAAAAAAAAAAAAAA [CACACA_site1432] | 7.93 ± 0.51 |
| AAATATTTTTAGAGTGCATGTAATAAAAATATAATG [TGCATGCA_site19] | 9.16 ± 0.24 |

| Sequence | gcPBM binding intensity (ln) |
| --- | --- |
| GAAATAAGTTAAAATAGTACGTAGTGTTCCTTAAGT [XGTACX_site6557] | 7.83 ± 0.64 |
| CGTTATATATGTATTACATGCAATATATGTACGTAA [TGCATGCA_site274] | 7.83 ± 0.56 |
| TAAATAATATCCCTTTGTACGTATTTTTTTTTATTA [XGTACX_site7303] | 7.84 ± 0.57 |
| TTAAAAATAATATATTGTACACATACTTATTTTAAT [XGTACX_site1348] | 8.1 ± 0.16 |
| TTAGGAAAACAAAAATGTACGCATATATATTATTGA [XGTACX_site8288] | 7.71 ± 0.66 |
| AAGACTTCTCCATATACACACACCAACAAATATAAA [CACACA_site2779] | 8.12 ± 0.45 |
| GTTTATTCATCATACGGTACACATAAATAATATATA [XGTACX_site6931] | 8.19 ± 0.45 |
| GTGCATATACAAATATGTACTTAAACGTTTTTTTTT [XGTACX_site7362] | 9.86 ± 0.57 |
| TTTTTCTTTTGATGTTGTACATATATATCATATAAT [XGTACX_site1189] | 7.89 ± 0.44 |
| TTCGTTTAAATCAAGTGTACATATTATATATAATAT [XGTACX_site7599] | 7.92 ± 0.11 |
| ATTTTTTTTTTTTTTTTTTGGTTTTCTTTAGGAGTT [CACACA_negctrl_site1258] | 7.54 ± 0.54 |
| GATGAATAAATCAAAGCACACATACACCCACATATA [CACACA_site7986] | 8.6 ± 0.21 |
| TTTCTTAAAATGTTATGTACATATTTCGTTTCAAAG [XGTACX_site6102] | 7.8 ± 0.41 |
| TCTTTTTAATTTATATGTACTTATATTAATTATAAG [XGTACX_site7524] | 7.75 ± 0.42 |
| ATATATTTCAAAGGGGTGCAGGCATATTTAAGCAAA | 8.88 ± 0.13 |
| TTAATAAAAGCCCATGCACACCTTAGAAAGTTTTAT [CACACA_site8003] | 7.93 ± 0.52 |
| TGAGCTTCAACAATATGTACATAAAATATATTACAT [XGTACX_site4763] | 7.67 ± 0.5 |
| GTATTATAGTATAATACACACCCAAATATTAAAAAG [CACACA_site7404] | 8.09 ± 0.49 |
| ATTGAATATGGATATGTGCACATATGTATATAAGTA | 9.66 ± 0.4 |
| AAAACATTGTTGAACTGTTTTATTTATAAATATAAG [XGTACX_negctrl_site393] | 7.68 ± 0.52 |
| ATATATATACTGTGTACACACATATGTATTTATATA [CACACA_site4600] | 8.58 ± 0.48 |
| TGCTTTATTATTTATTGTACATGTAAAATGAGAGAG [XGTACX_site2288] | 8.5 ± 0.11 |
| TTTGTTTAAATTAAATGTACATAAAGAATAATATAT [XGTACX_site5093] | 8.26 ± 0.36 |

| Sequence | gcPBM binding intensity (ln) |
| --- | --- |
| TAATAACTACAAAAAAAAAAGAAAAATAGAAAAAGG [CACACA_negctrl_site1102] | 7.75 ± 0.67 |
| TCGTGTTAAACTTTTACACACAAACTTGCAATAATT [CACACA_site7745] | 9.18 ± 0.085 |
| AATTATATGAAATAAACACACATATGTAATATTACA [CACACA_site1928] | 7.68 ± 0.49 |
| AGAAGGTAAATAATTTACCCATATATATAAATATAT [GTGCAC_negctrl_site631] | 7.33 ± 0.52 |
| TTATTATTTCTTAGTAGTACTATATAATTTTTTTTT [XGTACX_site1847] | 7.65 ± 0.45 |
| ATAGTATCTGGTAGCTGTACGAGTCGTAGAGAGTAG [XGTACX_site2546] | 8.45 ± 0.39 |
| GGAAAATTATCAATAGCATGCAAAATGTGAATATTA [TGCATGCA_site901] | 7.61 ± 0.7 |
| ATATATCTGTATGGCACACACGGATAAATATATATA [CACACA_site4668] | 8.62 ± 0.26 |
| TGTATTTAGAAACATACACACATATTAAGTTTACAT [CACACA_site5689] | 7.56 ± 0.68 |
| TATATTTGTACATGATATTTTTTTTTTCTTTTAAAA [CACACA_negctrl_site754] | 7.54 ± 0.53 |
| GCCAAAATATAATTTACACACTTATTAAATAATTAT [CACACA_site236] | 7.84 ± 0.41 |
| AGAATAATACAAAAATGTACATTAATAAAAAGATAG [XGTACX_site780] | 8.21 ± 0.18 |
| TTTCCTCATTTTATCATACACACTTATTTATATGTG [CACACA_site900] | 7.8 ± 0.52 |
| CTAATGATCATATATACACACACACTAATAAAAAAA [CACACA_site9329] | 7.92 ± 0.54 |
| TATATTTAGATATATACACACATTAGCATTTTCATA [CACACA_site6902] | 7.5 ± 0.54 |
| AAAGAATTTGCATATACACACAAAAAGATATATACA [CACACA_site6318] | 7.74 ± 0.49 |
| CATAATACAGATAACACACACAATTATACATAAAAT [CACACA_site5742] | 7.87 ± 0.39 |
| AGATTATAAAATTCTACACACATATATACATATATA [CACACA_site3485] | 7.66 ± 0.54 |
| GACCAATTCAAATATGCACACAAATTTGAAAACGAT [CACACA_site9202] | 8.955 ± 0.064 |
| ATATAAAAAAAAAAAAGTACACATAAACAAATGCAT [XGTACX_site4241] | 8.28 ± 0.28 |
| AATATATAGAAACACACACACAAAAAAAAAAAAAAA [CACACA_site1326] | 8.06 ± 0.46 |
| AATAAAAAGACATTCACACATATATATTATTTATAT [CACACA_site5936] | 7.75 ± 0.42 |
| TTTCACTTTTTCCAAAGTACATATATAAAAATTAAT [XGTACX_site6947] | 7.88 ± 0.19 |

| Sequence | gcPBM binding intensity (ln) |
| --- | --- |
| TTTTAATAAATATACACACACAAAAAAAAAAAAAAA [CACACA_site3971] | 8.07 ± 0.79 |
| ATATGTAGAAGTAATGCACACATATGTATATATATA [CACACA_site8796] | 10.8 ± 0.48 |
| TTAAAATATAATATTCGTACTTATTCAAAAGAAAAA [XGTACX_site2122] | 7.49 ± 0.37 |
| ATAATGTAAAAGTAAACACACACATATATATATACA [CACACA_site8793] | 7.72 ± 0.62 |
| GTCTTAAAAATTAAAACACACGTTCACTTTCATATT [CACACA_site5803] | 8.08 ± 0.62 |
| TATATATATATATAATGTACATATATATAATATACA [XGTACX_site1552] | 9.21 ± 0.29 |
| ATTTCTACTAAAAATACACACGATGATACAACGAAG [CACACA_site1755] | 7.79 ± 0.69 |
| AATTAATAACAAAATAAACACACATATATAAATACA [CACACA_site8456] | 7.76 ± 0.53 |
| AAAAAAACATAACAAAATGAAACAAAACAAAAAGAA [GTGCAC_negctrl_site577] | 7.75 ± 0.67 |
| AGTTATTAAAAATGTGCATGCAATGGTTTCTCTTAA [TGCATGCA_site634] | 8.54 ± 0.24 |
| AAAAAAAAAAAAAAAGCACACATCATATTATAATTC [CACACA_site3355] | 8.96 ± 0.52 |
| AGGAGGTCAGTTCACAGTACCCAGAAACTCTACGAG [XGTACX_site2006] | 7.5 ± 0.39 |
| TCTTTTTTTTCTTTTTTTTTATTTAAATATCAAGTA [CACACA_negctrl_site1354] | 7.59 ± 0.34 |
| ATTTATAATGATTTTTTTAGTAATCTTGTTATTTTT [XGTACX_negctrl_site373] | 7.38 ± 0.54 |
| GTATGTATATATATATGTACATACTGTTTATCGTTA [XGTACX_site6168] | 7.63 ± 0.27 |
| TTATATGGCTCCATTTGTACGCATCCATGTTTTTAT [XGTACX_site6590] | 8.19 ± 0.72 |
| GTATATATTTTTATTTAATAATTTGTTTATTTATTC [CACACA_negctrl_site647] | 7.64 ± 0.45 |
| CATACATATACATACAGTACATATTTTTTGTCAATT [XGTACX_site7357] | 7.82 ± 0.39 |
| AACGAAAACACTACGTGTACCAAACGTCCTACTAAC [XGTACX_site4915] | 7.94 ± 0.45 |
| CGTTAAAGGGAATGTATACACACGTTTCTCTATGTT [CACACA_site1198] | 7.71 ± 0.68 |
